In ChEMBL document CHEMBL4813913, “In vitro identification of imidazo[1,2-a]pyrazine-based antileishmanial agents and evaluation of L. major casein kinase 1 inhibition” (Eur J Med Chem, 2021):

Legend:
Leishmania donovani [1] = test: Antileishmanial activity against amastigote stage of Leishmania donovani (MHOM/ET/67/HU3) infected in mouse RAW264.7 cells assessed as reduction in parasitic proliferation measured by SYBR Green 1 dye based fluorescence assay; format: functional, organism-based; settings: MHOM/ET/67/HU3, RAW264.7
Outline: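 RAW 264.7 macrophages seeded at 100,000 cells/well in DMEM with 10% heat-inactivated FBS, 24 h at 37 °C, 5% CO₂. Infected with plateau-phase promastigotes (parasite:macrophage 16:1) for 24 h. Compounds serially diluted, final 391 nM–100 μM. Amastigote viability read by SYBR Green I after lysis and 3 freeze-thaw cycles. IC50 by nonlinear regression against excipient-treated controls. Miltefosine reference.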

[2] = biological target: Dual specificity protein kinase CLK1 (Mus musculus, UniProt P22518); test: Inhibition of recombinant mouse CLK1 expressed in bacteria using GRSRSRSRSRSR as substrate in presence of [gamma-33P]ATP by radiometric assay; format: ADME
[3] = biological target: T1, Glycogen synthase kinase-3 (Sus scrofa, UniProt B2LUN4+I6LNT8); test: Inhibition of pig brain GSK alpha/beta using YRRAAVPPSPSLSRHSSPHQSpEDEEE as substrate in presence of [gamma-33P]ATP by radiometric assay; format: ADME, Sus scrofa domesticus
Leishmania major = test: Antileishmanial activity against amastigote stage of Leishmania major (MHOM/IL/81/BNI) infected in BALB/c mouse peritoneal macrophages assessed as reduction in parasitic proliferation measured after 4 days by MayGrunwald-Giemsa stain based microscopic method; format: functional, organism-based; settings: Peritoneal macrophage, 96 h
Outline: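 BALB/c peritoneal macrophages on glass slides, 1.5×10⁵ cells/mL in RPMI 1640 with 15% FBS, 24 h attachment. Infected with stationary-phase promastigotes (1.5×10⁶/mL) for 24 h at 37 °C, 5% CO₂. Washed, then exposed 4 days to 100, 10, 1, 0.1 μM (DMSO ≤1% final). Methanol-fixed, May-Grunwald-Giemsa stained, amastigotes counted in 100 macrophages per duplicate well. IC50 from amastigotes/macrophage. Run twice.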

[4] = Cytotoxicity against mouse RAW264.7 cells assessed as reduction in cell growth measured after 48 hrs by SYBR Green 1 dye based fluorescence assay
Outline: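 RAW 264.7 cells seeded at 100,000 cells/well in DMEM with 10% FBS, 24 h at 37 °C, 5% CO₂. Two-fold serial dilutions, final 49 nM–100 μM, for 48 h. Growth read by SYBR Green I. CC50 by nonlinear regression. Miltefosine reference; untreated cells as growth control.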

[5] = biological target: Serine/threonine-protein kinase pim-1 (Homo sapiens, UniProt P11309); test: Inhibition of recombinant human PIM1 expressed in bacteria using histone H1 as substrate in presence of [gamma-33P]ATP by radiometric assay; format: ADME
[6] = Inhibition of recombinant Leishmania major CK1.2 expressed in bacterial expression system using RRKHAAIGSpAYSITA as substrate in presence of [gamma-33P]ATP by radiometric assay
[7] = Toxicity against Galleria mellonella larva assessed as cuticular darkening at 50 mg/kg measured for 7 days; format: organism-based; settings: in vivo, 168 h, time 7 day
Outline: (§1)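 G. mellonella larvae (6th stage, 260–320 mg), groups of ten. Injected in the 4th left pro-leg with 10 μL at 10–50 mg/kg; controls got PBS/DMSO (DMSO <40%). Kept in the dark at 37 °C. Survival and cuticular darkening scored daily for 7 days; death taken as no movement on stimulus. Kaplan-Meier with log-rank test; two independent experiments.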

[8] = Cytotoxicity against human MRC5 cells assessed as reduction in cell viability measured after 96 hrs by resazurin assay; format: cell-based
Outline: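 Human MRC-5 fibroblasts grown in RPMI 1640 with 10% FBS. Exposed to 100, 10 and 1 μM in triplicate for 96 h. Then 10 μL of 700 μM resazurin added for 4 h and fluorescence read. Value is the mean of triplicates.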

CDK9/cyclin T1 = CDK9/cyclin T1 (Homo sapiens, UniProt P50750); test: Inhibition of human recombinant CDK9/CyclinT expressed in baculovirus infected Sf9 cells using YSPTSPSYSPTSPSYSPTSPSKKK as substrate in presence of [gamma-33P]ATP by radiometric assay
[9] = biological target: Cyclin-dependent kinase 5/CDK5 activator 1 (Homo sapiens, UniProt Q00535); test: Inhibition of human recombinant CDK5/ p25 expressed in bacterial expression system using histone H1 as substrate in presence of [gamma-33P]ATP by radiometric assay; format: ADME
Aurora kinase B = Aurora kinase B (Homo sapiens, UniProt Q96GD4); test: Inhibition of recombinant human AURKB expressed in baculovirus infected Sf9 cells using MBP as substrate in presence of [gamma-33P]ATP measured by radiometric assay
[10] = biological target: Dual specificity tyrosine-phosphorylation-regulated kinase 1A (Rattus norvegicus, UniProt Q63470); test: Inhibition of recombinant rat DYRK1A (1 to 499 ) expressed in bacterial expression system using KKISGRLSPIMTEQ as substrate in presence of [gamma-33P]ATP measured by radiometric assay
[11] = biological target: T2, Receptor-interacting serine/threonine-protein kinase 3 (Homo sapiens, UniProt Q9Y572); test: Inhibition of recombinant human RIPK3 expressed in baculovirus infected Sf9 cells using MBP as substrate in presence of [gamma-33P]ATP by radiometric assay
[12] = Toxicity against Galleria mellonella larva assessed as reduction of viability at 50 mg/kg measured for 7 days; format: organism-based; settings: in vivo, 168 h, time 7 day; outline: as §1
CDK2/Cyclin A2 = CDK2/Cyclin A2 (Homo sapiens, UniProt P24941); test: Inhibition of human CDK2/ cyclinA using histone H1 as substrate in presence of [gamma-33P]ATP by radiometric assay; format: ADME, protein-complex assay
[13] = Selectivity index, ratio of CC50 for mouse RAW264.7 cells to IC50 for amastigote stage of Leishmania major (MHOM/IL/81/BNI) infected in BALB/c mouse peritoneal macrophages; format: toxicity; settings: read-out: Ratio CC50/IC50
Outline: (§2)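 Selectivity index is CC50 on RAW 264.7 or MRC-5 cells divided by IC50 on intracellular amastigotes.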

[14] = Selectivity index, ratio of CC50 for mouse RAW264.7 cells to IC50 for amastigote stage of Leishmania braziliensis (MHOM/BR/75/M2903b) infected in mouse RAW264.7 cells; format: toxicity, cell-based; settings: read-out: Ratio CC50/IC50; outline: as §2
[15] = Selectivity index, ratio of CC50 for human MRC5 cells to IC50 for amastigote stage of Leishmania amazonensis (MHOM/BR/73/M2269) infected in mouse RAW264.7 cells; format: toxicity, cell-based; settings: read-out: Ratio CC50/IC50; outline: as §2
[16] = Inhibition of recombinant Leishmania major CK1.2 expressed in bacterial expression system using RRKHAAIGSpAYSITA as substrate in presence of ATP measured after 30 mins by ADP-Glo assay
[17] = biological target: Casein kinase I isoform epsilon (Homo sapiens, UniProt P49674); test: Inhibition of recombinant human CK1 epsilon expressed in baculovirus infected Sf9 cells using RRKHAAIGSpAYSITA as substrate; format: ADME
Leishmania donovani [18] = test: Potency index, ratio of Miltefosine IC50 to test compound IC50 for antileishmanial activity against amastigote stage of Leishmania donovani (MHOM/ET/67/HU3) infected in mouse RAW264.7 cells assessed as reduction in parasitic proliferation measured by SYBR Green 1 dye based fluorescence assay; format: functional
[19] = Selectivity index, ratio of CC50 for mouse RAW264.7 cells to IC50 for amastigote stage of Leishmania infantum (MHOM/FR/2008/LEM5700) infected in mouse RAW264.7 cells; format: toxicity, cell-based; settings: read-out: Ratio CC50/IC50; outline: as §2
[20] = biological target: T2, Receptor-interacting serine/threonine-protein kinase 3; test: Inhibition of recombinant human RIPK3 expressed in baculovirus infected Sf9 cells using MBP as substrate in presence of ATP measured after 30 mins by ADP-Glo assay; format: ADME; settings: sf9, 0.5 h
[21] = biological target: T1, Glycogen synthase kinase-3; test: Inhibition of pig brain GSK alpha/beta using YRRAAVPPSPSLSRHSSPHQSpEDEEE as substrate in presence of ATP measured after 30 mins by ADP-Glo assay; format: ADME, tissue-based, Sus scrofa domesticus
[22] = Selectivity index, ratio of CC50 for human MRC5 cells to IC50 for amastigote stage of Leishmania major (MHOM/IL/81/BNI) infected in BALB/c mouse peritoneal macrophages; format: toxicity; settings: read-out: Ratio CC50/IC50; outline: as §2
[23] = Selectivity index, ratio of CC50 for mouse RAW264.7 cells to IC50 for amastigote stage of Leishmania donovani (MHOM/ET/67/HU3) infected in mouse RAW264.7 cells; format: toxicity, cell-based; settings: read-out: Ratio CC50/IC50; outline: as §2
Leishmania donovani [24] = test: Antileishmanial activity against intramacrophage form of Leishmania donovani; format: functional, organism-based

With Nc1nccc(-c2c(-c3ccc(F)cc3)nc3c(N)nccn23)n1 the IC50 (Leishmania donovani [1]) was 0.3 µM, the IC50 [2] was 0.035 µM and the IC50 [3] was 1.1 µM. For the same compound, the IC50 (Leishmania major) was 34.1 µM, the CC50 at 48 h [4] was 4.69 µM and the “inhibition (INH)” value [5] was “Not Active”. For the same compound, the IC50 [6] was 0.04 µM, the Activity [7] was “Non-Toxic” and the CC50 at 96 h [8] was 32.8 µM. For the same compound, the IC50 (CDK9/cyclin T1) was 0.5 µM, the IC50 [9] was 10 µM and the “inhibition (INH)” value (Aurora kinase B) was “Not Active”. For the same compound, the “inhibition (INH)” value [10] was “Not Active”, the “inhibition (INH)” value [11] was “Not Active” and the Activity [12] was “Non-Toxic”. The IC50 (CDK2/Cyclin A2) was 0.8 µM.
For CN(C)c1nccn2c(-c3cnn(C)c3)c(-c3ccc(F)cc3)nc12, the selectivity ratio [13] was 1.8, the IC50 (Leishmania major) was 8.99 µM and the CC50 at 48 h [4] was 16 µM. The selectivity ratio [14] was 0.6, the selectivity ratio [15] was 4 and the CC50 at 96 h [8] was over 100 µM. The IC50 [16] was 12.4 µM, the IC50 [17] was over 100 µM and the “Ratio IC50” value (Leishmania donovani [18]) was 1.4. For the same compound, the selectivity ratio [19] was 6.1, the “inhibition (INH)” value [20] was “Not Active” and the Activity [12] was “Non-Toxic”. The IC50 [21] was over 10 µM, the selectivity ratio [22] was 11.1 and the selectivity ratio [23] was 12.6.
In the case of O=[N+]([O-])c1cn2c(n1)O[C@@H](COc1ccc(-c3ccc(F)cc3)nc1)CC2 [DNDI-0690], the EC50 (Leishmania donovani [24]) is reported as 0.06 µM.
